The whole screen tested about 310,000 compounds, of which about 2,200 (0.71%) showed an effect of 50% or more. Effects have a minus sign here. The list shows a part of the results.

For the experiment, the target named is human ether-à-go-go-related gene (hERG) potassium channel (human, UniProt Q12809). As to the kind of experiment: primary screen, population patch clamp on CHO cells stably expressing hERG.
human ether-à-go-go-related gene (hERG) potassium channel, sequence (Q12809 whole entry, looked up): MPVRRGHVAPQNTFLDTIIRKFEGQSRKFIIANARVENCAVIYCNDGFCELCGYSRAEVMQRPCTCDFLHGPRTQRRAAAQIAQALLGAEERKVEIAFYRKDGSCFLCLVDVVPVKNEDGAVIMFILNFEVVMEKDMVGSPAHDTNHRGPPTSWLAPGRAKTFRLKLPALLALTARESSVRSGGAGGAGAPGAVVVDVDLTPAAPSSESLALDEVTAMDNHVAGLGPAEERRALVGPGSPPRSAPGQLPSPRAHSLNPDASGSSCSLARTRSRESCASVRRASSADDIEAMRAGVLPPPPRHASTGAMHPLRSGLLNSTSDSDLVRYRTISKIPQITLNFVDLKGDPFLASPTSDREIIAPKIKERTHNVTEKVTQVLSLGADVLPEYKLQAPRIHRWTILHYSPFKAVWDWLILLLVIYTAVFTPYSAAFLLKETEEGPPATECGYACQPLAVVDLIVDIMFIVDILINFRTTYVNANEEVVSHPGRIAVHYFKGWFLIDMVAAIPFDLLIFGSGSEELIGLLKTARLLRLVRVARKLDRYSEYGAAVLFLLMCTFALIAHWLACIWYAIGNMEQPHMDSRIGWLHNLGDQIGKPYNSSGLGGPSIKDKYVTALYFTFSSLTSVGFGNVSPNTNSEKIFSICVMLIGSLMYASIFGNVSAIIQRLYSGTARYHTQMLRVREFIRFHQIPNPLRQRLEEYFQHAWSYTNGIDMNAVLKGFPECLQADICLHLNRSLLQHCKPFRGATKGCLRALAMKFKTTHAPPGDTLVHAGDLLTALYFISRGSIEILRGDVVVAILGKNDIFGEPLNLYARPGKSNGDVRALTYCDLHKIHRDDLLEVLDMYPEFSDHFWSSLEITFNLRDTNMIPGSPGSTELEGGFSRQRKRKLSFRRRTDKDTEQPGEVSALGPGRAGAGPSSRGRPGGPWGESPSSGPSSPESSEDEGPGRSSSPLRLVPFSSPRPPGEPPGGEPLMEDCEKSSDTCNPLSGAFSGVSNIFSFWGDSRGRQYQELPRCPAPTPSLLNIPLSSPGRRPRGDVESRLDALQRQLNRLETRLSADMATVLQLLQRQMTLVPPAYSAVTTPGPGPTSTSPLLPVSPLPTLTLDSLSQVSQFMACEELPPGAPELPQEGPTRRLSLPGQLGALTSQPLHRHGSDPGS
`Cc1ccc(C(=O)Nc2ccc3cn[nH]c3c2)cc1S(=O)(=O)N1CCOCC1`: the “hERG current change (%, negative = inhibition) at 1uM” value was found to be 1.29%.

For the compound `Cc1nonc1OCCCNc1ccc([N+](=O)[O-])cc1Cl`, the “hERG current change (%, negative = inhibition) at 1uM” value is on record as -6.64%.

As to `O=c1nc(SCc2cccc(C(F)(F)F)c2)nc2ccccn12`, the “hERG current change (%, negative = inhibition) at 1uM” value is on record as -13.3%.

As to `Cc1nn2c3ccccc3n(C)c2nc1=O`, the “hERG current change (%, negative = inhibition) at 1uM” value was 12.9%.

As for `Cc1cnc(NC(=O)C2CCCO2)s1` (stereo not drawn), the “hERG current change (%, negative = inhibition) at 1uM” value was 5.44%.

Regarding `COc1ccc(C(CNC(=O)c2ccc(S(=O)(=O)N(C)C)cc2)N2CCCC2)cc1` (stereo not drawn), the “hERG current change (%, negative = inhibition) at 1uM” value came to 6.28%.

As for `COc1ccc(CNC(=O)/C=C/c2cc([N+](=O)[O-])ccc2OC(F)F)cc1OC`, the “hERG current change (%, negative = inhibition) at 1uM” value was 17.2%.

Consider `Cc1ccc(OC(=O)c2cccc([N+](=O)[O-])c2)c(-n2nc3ccccc3n2)c1`, for which the “hERG current change (%, negative = inhibition) at 1uM” value was 11.1%.

With `COc1ccc(-c2nn(-c3ccccc3)cc2CNCCN2CCOC2=O)c(F)c1`, the “hERG current change (%, negative = inhibition) at 1uM” value is 0.59%.

In the case of `O=C(CSc1nc(-c2ccc(F)cc2)cc(C(F)(F)F)n1)Nc1ccc2c(c1)OCO2`, the “hERG current change (%, negative = inhibition) at 1uM” value is 6.32%.

Turning to `Cc1ccc(C(C[N+](=O)[O-])c2c(N)n(C)c(=O)n(C)c2=O)cc1` (stereo not drawn), the “hERG current change (%, negative = inhibition) at 1uM” value is recorded as 8.69%.

As for `O=C(Cn1nnc(-c2ccc(F)cc2)n1)Nc1ccc2c(c1)OCCO2`, the “hERG current change (%, negative = inhibition) at 1uM” value was found to be 8.32%.

Take `O=c1c2cc(F)ccc2sn1-c1ccccc1`: the “hERG current change (%, negative = inhibition) at 1uM” value is 9.94%.

`COc1ccc(Cl)cc1NC(=O)C(=O)NC1CCCCCC1`: the “hERG current change (%, negative = inhibition) at 1uM” value is 9.7%.

For the compound `C=CCn1c(=O)/c(=C2/Sc3cc(OC)ccc3N2C)s/c1=C1\C(=O)N(CC)C(=S)N1C`, the “hERG current change (%, negative = inhibition) at 1uM” value came out at 8.41%.

Turning to `O=C1CC(N2CCN(Cc3ccc(Cl)cc3)CC2)C(=O)N1CCc1ccccc1` (stereo not drawn), the “hERG current change (%, negative = inhibition) at 1uM” value was -13%.

Regarding `O=C(O)C1CC=CCC1C(=O)NCc1ccc(Cl)c(Cl)c1` (stereo not drawn), the “hERG current change (%, negative = inhibition) at 1uM” value is on record as -1.22%.

In the case of `CC(=O)c1ccc(NC(=S)Nc2ccc(N3CCOCC3)cc2)cc1.Cl`, the “hERG current change (%, negative = inhibition) at 1uM” value is recorded as 6.39%.

On to `COc1ccc(-n2c(Cc3cccn3C)nnc2SCC(=O)Nc2cccc(OC)c2)cc1`, for which the “hERG current change (%, negative = inhibition) at 1uM” value is 6.85%.

Consider `CC(=O)Oc1c(Cl)c(N2CCOCC2)c(OC(C)=O)c2ccccc12`, for which the “hERG current change (%, negative = inhibition) at 1uM” value is given as -9.93%.

Regarding `CC(C)(C)N1C(=O)c2ccccc2NC(=O)N1Cc1ccccc1`, the “hERG current change (%, negative = inhibition) at 1uM” value amounted to 12.1%.

With `COc1cccc(CN2CCN(C(=O)c3cccs3)CC2)c1OC`, the “hERG current change (%, negative = inhibition) at 1uM” value turned out to be 8.8%.

As for `Cc1ccc(-c2csc3ncnc(N4CCN(Cc5ccccc5)CC4)c23)cc1`, the “hERG current change (%, negative = inhibition) at 1uM” value turned out to be 22.9%.

Regarding `Cc1ncc([N+](=O)[O-])n1CC(=O)NC1CCCC1`, the “hERG current change (%, negative = inhibition) at 1uM” value is 4.26%.
